In the supplement of paper PMC3334620:
In all, about 33,000 sequences were measured (“E-score (-0.5 to 0.5)”: median about -0.011, highest 2% from about 0.28 on). The list shows a part of the results.

What follows are sequences tested against T1, Gcr1 (UniProt P07261) (assay: PBM E-score (8-mer binding enrichment) (E-score (-0.5 to 0.5)); higher = stronger / more preferred TF binding; most listed sequences are background and not binding sites). Conditions: protein concentration: 100 nM; construct: GST-full length.
T1 sequence: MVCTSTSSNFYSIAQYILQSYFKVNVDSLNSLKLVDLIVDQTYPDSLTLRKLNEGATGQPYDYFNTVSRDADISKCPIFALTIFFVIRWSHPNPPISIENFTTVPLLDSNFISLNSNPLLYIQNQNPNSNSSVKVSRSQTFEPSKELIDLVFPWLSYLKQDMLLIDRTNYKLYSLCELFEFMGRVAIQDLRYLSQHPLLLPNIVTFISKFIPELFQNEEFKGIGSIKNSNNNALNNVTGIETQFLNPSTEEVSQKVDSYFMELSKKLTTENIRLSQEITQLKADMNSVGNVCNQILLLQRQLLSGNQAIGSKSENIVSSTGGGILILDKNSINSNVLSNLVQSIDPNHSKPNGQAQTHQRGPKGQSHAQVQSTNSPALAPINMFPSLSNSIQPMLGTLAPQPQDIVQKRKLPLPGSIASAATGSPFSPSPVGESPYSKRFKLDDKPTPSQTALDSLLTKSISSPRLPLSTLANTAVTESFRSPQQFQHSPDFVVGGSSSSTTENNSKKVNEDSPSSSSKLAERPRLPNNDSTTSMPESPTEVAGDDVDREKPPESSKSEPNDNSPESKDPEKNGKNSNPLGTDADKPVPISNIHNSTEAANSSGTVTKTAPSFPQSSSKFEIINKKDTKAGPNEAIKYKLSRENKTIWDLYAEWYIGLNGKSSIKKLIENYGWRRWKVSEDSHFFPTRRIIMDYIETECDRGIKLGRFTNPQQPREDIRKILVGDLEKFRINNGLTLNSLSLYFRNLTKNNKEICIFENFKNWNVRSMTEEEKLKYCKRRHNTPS
In short: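 Bound GST-tagged yeast transcription factors, applied at about 100-200 nM to double-stranded universal all-10-mer Agilent arrays, were detected with fluorescent anti-GST. Scans were normalised with masliner. A modified Wilcoxon-Mann-Whitney statistic, the E-score, was assigned to each ungapped eight-base word pooled with its reverse complement by the Universal PBM Analysis Suite.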

Row | Sequence | PBM E-score
1 | AGATCACT | 0.0437
2 | GGTTCTTA | 0.238
3 | ACACAGCC | -0.257
4 | GCTGCGAA | 0.17
5 | CGACACAA | -0.0722
6 | AACCCGTA | -0.0238
7 | AAGGAGTC | -0.0124
8 | CTGAGCGC | -0.0234
9 | GATAACTA | 0.153
10 | CTAGCATA | 0.017
11 | ATGGTTCA | -0.153
12 | ATTGACAC | -0.193
13 | GCTCGCCC | -0.169
14 | AAATCTGC | 0.0369
15 | ACTGATAC | 0.0968
16 | CGGAAGGA | 0.0319
17 | GTTCACAA | -0.115
18 | CCTTAGAA | 0.195
19 | AAAATGCC | 0.1
20 | AAATGGTA | 0.0505
21 | CTTGATCC | 0.046
22 | ACACTTGC | -0.152
23 | GTATAACA | 0.0924
24 | AGACGGCT | -0.193
25 | GCCGGGTA | -0.0626

Row | Sequence | PBM E-score
26 | AACATCCT | 0.231
27 | GCTGGAGA | 0.13
28 | GGCGTGAC | -0.204
29 | GATGCCGA | 0.335
30 | GATGCAAA | 0.246
31 | CGAGCTAA | -0.129
32 | AGGCCTAT | -0.0757
33 | GCTAATGA | -0.00839
34 | GCTGAGAC | 0.0117
35 | ATCCAACC | -0.102
36 | GAAGAGGC | 0.0599
37 | AGCGTAGG | -0.139
38 | GCGGTCCA | -0.101
39 | GAGGTCAA | 0.0238
40 | CCGGTTCA | -0.0142
41 | AAACCGGT | 0.118
42 | CGTCCGGC | 0.137
43 | GTTGCACA | -0.112
44 | AAATCCAC | 0.0463
45 | CGTCATAA | -0.0105
46 | AAACATGT | 0.133
47 | CCAACTGA | -0.016
48 | CTGCTTCA | -0.225
49 | CCCCAAGG | -0.0911
50 | CAAAATTA | 0.086

Row | Sequence | PBM E-score
51 | AAACACCC | 0.085
52 | CCCGTCGC | 0.0626
53 | ACGCCGGA | 0.0899
54 | ACGGAATA | 0.00251
55 | GCCACTCC | -0.045
56 | AACGTTTA | -0.0574
57 | GTACGATA | -0.0276
58 | AGAGCTTG | -0.304
59 | ATTCACAG | -0.0484
60 | ATGAGAGG | -0.0153
61 | AGCCCGTA | -0.0871
62 | ACGAAGAA | -0.0157
63 | AAAGTGTC | -0.135
64 | ACTATGGA | -0.00785
65 | CCCGTCGA | -0.121
66 | GATAAAAA | 0.0621
67 | AATTTTGA | 0.0378
68 | GATCAGTA | -0.124
69 | CCAAGGAA | -0.138
70 | ACTGCTAG | -0.121
71 | AGGGGGGG | -0.309
72 | AGACTTTG | -0.078
73 | CTTTTGCC | -0.0371
74 | ATTTCCTG | -0.0336
75 | GAGACCCC | -0.0161

Row | Sequence | PBM E-score
76 | GGACAGCA | -0.291
77 | CGAATGAA | -0.0737
78 | CGTCCCTA | 0.0186
79 | CTGGCTGC | 0.35
80 | CATGATAC | 0.0457
81 | CGAGATTC | 0.208
82 | CCAAGTAG | 0.0382
83 | CCTGGTCG | -0.127
84 | ATTTTTTC | 0.0794
85 | ATATACTG | -0.023
86 | AGGCAAGC | -0.259
87 | GCTAGATA | 0.19
88 | ACTAAAAG | 0.174
89 | GACACGCA | 0.19
90 | AAGTTACG | -0.0292
91 | GCAGAAAC | 0.0158
92 | AGATCGCG | -0.0936
93 | GAGAGCAC | 0.221
94 | GACAGTAC | -0.215
95 | CGAGAACC | 0.0913
96 | CCCCTAGG | -0.198
97 | CTAAGAGA | -0.129
98 | CCAGACTC | 0.00878
99 | GTATGGTA | 0.0596
100 | TATAGTCA | -0.0997

Row | Sequence | PBM E-score
101 | AAGCTGAG | -0.124
102 | ATGTTATG | 0.0312
103 | ACCACAGT | 0.0769
104 | CGCAATGC | -0.0825
105 | TCAAAGGA | 0.0741
106 | GAGTGCAA | 0.0879
107 | AAGACGGC | -0.142
108 | CTTAGTTC | 0.015
109 | ACCGTTCT | -0.108
110 | GAATCTAC | 0.277
111 | CCACGAAC | 0.0539
112 | ACATGACG | 0.127
113 | CCAGGACG | 0.0878
114 | GCAGGTCC | -0.0471
115 | ATTGTAAC | 0.0272
116 | CAGGACCC | 0.24
117 | CGCAGTGA | 0.0378
118 | CACCACTA | 0.298
119 | GTAGATAC | 0.0637
120 | AATGAGGA | 0.215
121 | ACAGCATC | 0.21
122 | TACCCTGA | -0.0688
123 | ATATGTTA | -0.115
124 | CTGACGAC | 0.00911
125 | ATAGCGTA | 0.045

Row | Sequence | PBM E-score
126 | CTTGCAAG | -0.102
127 | AAACGATA | -0.0702
128 | ATTTTAGG | 0.249
129 | CGTCCAAA | 0.33
130 | AACTTGTG | 0.0787
131 | AGAATCTA | 0.219
132 | ATGGGAAG | 0.169
133 | CACACCTC | -0.0485
134 | CCAATAGC | 0.158
135 | CTGGACAG | -0.14
136 | ATTAATTG | -0.0321
137 | ACGTTCCC | -0.0625
138 | AGCAAGAC | -0.0866
139 | ACTTGTCA | -0.061
140 | CACCGACA | -0.134
141 | AGAGTGAG | -0.0865
142 | AACGGGTA | 0.102
143 | CGGAGGAC | -0.195
144 | AAAAGTAG | 0.295
145 | ACATCCCG | -0.128
146 | AGACGCGA | 0.214
147 | CTTGCGTA | -0.00594
148 | AAACACAA | 0.0754
149 | AAGTACTG | -0.0656
150 | GTGCCCGA | 0.0418

Row | Sequence | PBM E-score
151 | ACACGCCG | 0.199
152 | ATCTAGAG | -0.0517
153 | ATCTATGA | -0.0683
154 | AGGCCCCG | 0.0239
155 | CCTAGACA | -0.158
156 | CTCATAAA | -0.0685
157 | ATACCTGA | 0.157
158 | CGATTTGC | -0.0992
159 | CCTCGCGC | -0.19
160 | AGTGCAAT | -0.0732
161 | GGTCATGA | -0.122
162 | CGAAACTA | -0.125
163 | CGGTCCTC | -0.165
164 | CAGGTGAC | -0.0797
165 | CTCGTGTA | -0.0471
166 | GCGATCGC | -0.134
167 | GGAGGTAA | -0.0182
168 | ATGTGTAG | -0.213
169 | ACCTCATA | -0.111
170 | AGAGCTCA | 0.0332
171 | CCCCCCAG | -0.232
172 | AGCCGGTA | 0.145
